Measurements from PubChem BioAssay AID493208 (National Center for Advancing Translational Sciences (NCATS), 2011).
The whole screen tested about 44,000 compounds, of which about 340 (0.77%) were called active. Another 5% or so got no clear call; they are omitted. The call rests on the fitted dose curve; in most records, active means well fitted inhibition curve with a large enough effect; inconclusive means small, poorly fitted or top-dose-only effect; inactive means flat fitted curve, though single readings scatter. The list shows a part of the results.

assay: Acumen qHTS Assay for Inhibitors of the mTORC1 Signaling Pathway in MEF (Tsc2-/-, p53-/-) Cells: Sytravon; settings: phospho-rpS6 immunofluorescence/PI, 24 h; series mostly up to 38.3 µM; activity change, negative = inhibition: at the top concentration;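 further: plate controls were DMSO for no effect and rapamycin for full effect; nearly all actives have a fitted effect of over 50% in size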
How it was run: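 Cell-based qHTS: Tsc2-/- p53-/- MEF, 24 h cpd, 37 °C; fix/perm, anti-phospho-S6 Alexa-488 + PI; Acumen 488 nm scan; pS6/PI ratio, % positive cells; rapamycin 7.5 nM = inhibition ref; PI count = viability.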

Activity change, negative = inhibition, inactive:
CCc1ccc(NC(=O)Cn2c(=O)n(Cc3nc(-c4ccccc4)no3)c(=O)c3cc4c(cc32)OCO4)cc1 -10.5%
COc1ccc(S(=O)(=O)N2CCC(c3ccncc3)CC2)cc1OC -0.26%
O=C(c1ccco1)n1nc(-c2ccc(Cl)cc2)nc1NCc1ccccc1 -28.4%
Cc1ccc(N2C(=O)NC(NS(=O)(=O)c3ccc(Cl)cc3)(C(F)(F)F)C2=O)cc1C (centres undefined) -2.47%
COc1ccc(S(=O)(=O)NCC(c2ccc(N(C)C)cc2)N2CCc3ccccc32)cc1 (centres undefined) 0%
Cc1cccc(C(=O)Nc2ccc(C(=O)OCc3cc(=O)n4nc(C5CC5)sc4n3)cc2)c1 9.09%
COc1ccccc1N1CCN(C(=O)CCc2nnc3n(C)c(=O)c4sccc4n23)CC1 8.86%
COCCNC(=O)CSc1cn(CC(=O)N2CCCCCC2)c2ccccc12 -6.22%
Cc1ccc(NC(=O)C2CCCN2S(=O)(=O)c2ccc3nc(-c4ccccc4)[nH]c3c2)cc1F (centres undefined) -4.36%
CCOc1ccc(OCC)c(NC(=O)C2CCN(S(=O)(=O)c3cn(C)cn3)CC2)c1 1.38%
CSc1ccc(CCNC(=O)Cn2ncc3c(=O)oc4ccccc4c32)cc1 -10.6%
Cc1ccn2c(Nc3ccc(F)cc3)c(-c3ccccn3)nc2c1 0.0896%
O=C(Cn1nc(-c2ccccc2)nc(Cc2ccccc2)c1=O)Nc1ccccc1 -5.92%
CCCCC(=O)OC1=C(C(C)=O)N(Cc2ccccc2)S(=O)(=O)c2ccccc21 1.11%
O=C(NCCc1nc2ccccc2n1Cc1ccccc1)c1ccco1 -2.74%
Cc1ccc(NS(=O)(=O)c2cnc(N)nc2)c(C)c1 0.209%
CCN(CC)CCNC(=O)C1CCN(c2cc(C)nc3c(-c4ccc(Cl)cc4)c(C)nn23)CC1 -4.79%
Cc1nc(-n2nc(C)c(Cc3ccc4c(c3)OCO4)c2C)sc1C(=O)Nc1cccc(Cl)c1 -16.8%
CCc1nn(CC(=O)Nc2cc(C)cc(C)c2)c(=O)c2cc3sccc3n12 -6.66%
Cc1ccc(CN2CCCn3nc(C(=O)NCc4ccc(OC(C)C)cc4)cc3C2=O)cc1 15.6%
CCOc1ccccc1NC(=O)N1CCN(C)c2ncccc21 -17%
Cc1ccc(NC(=O)CSc2n[nH]c(-c3ccc(F)cc3)n2)cc1F 2.03%
CSc1cccc(NC(=O)CC(c2cccs2)N2Cc3ccccc3C2=O)c1 (centres undefined) -9.02%
COc1cc(-c2noc(CN3CCN(c4cccc(Cl)c4)CC3)n2)cc(OC)c1OC -0.683%
CSc1ccc(CCNC(=O)CCc2c(C)nc3c(c(C)nn3-c3ccc(C)c(C)c3)c2C)cc1 0.24%
CCOC(=O)c1cccc(NC(=O)c2ccc3nc(C(C)C)oc3c2)c1 -2.33%
O=C(Nc1cccc(Cl)c1Cl)c1cc2nc(-c3ccc(Cl)cc3)cc(C(F)(F)F)n2n1 -7.56%
CCC(C(=O)Nc1nnc2n1CCS2)c1ccccc1 (centres undefined) -4.95%
Cc1ccc(CN2C(=O)CN(C3CCC(C)CC3)C(=O)C2c2ccc(F)cc2)cc1 (centres undefined) -15.6%
COc1ccc(Cn2c(=O)n(-c3ccccc3C)c(=O)c3c4c(sc32)CN(C(C)=O)CC4)cc1 -11.7%
CCCN(CCC)CCNC(=O)c1cc2c(-c3ccc(Cl)cc3)nn(C)c2s1 -12.9%
COc1ccc(NC(=O)N2CCc3c(sc4c3CCCC4)C2c2ccccc2OC)cc1 (centres undefined) -17%
CC(C)CC(=O)Nc1ccc2nc(SCC(=O)N3CCCC3)sc2c1 -4.62%
CCOC(=O)c1c(C)sc(-c2c(-c3cc(C)ccc3C)[nH]c3c2c(=O)n(C)c(=O)n3C)c1O 0.168%
Cc1ccc(NC(=O)CCn2nc(C)c(S(=O)(=O)N3CCCCC3)c2C)cc1Cl -11.3%
CCOc1ccc(N(CC(=O)Nc2cc(C)ccc2C)S(=O)(=O)c2c(C)[nH]c(=O)[nH]c2=O)cc1 -6.74%
CCN(c1ccc(C)cc1)S(=O)(=O)c1nnc(NC(=O)C2CCCCC2)s1 -1.93%
CCCNC(=O)CSc1nc2ccccc2nc1Cc1ccc(Cl)cc1 -0.178%
Cc1ccc(C)c(CN2C(=O)c3ccccc3S(=O)(=O)c3ccc(C(=O)N4CCc5ccccc54)cc32)c1 0.711%
Cc1ccc(OCC(=O)NCC(c2ccc(Cl)cc2)N2CCCCC2)cc1 (centres undefined) -7.82%
COc1ccc(-n2c(C)c(C(C)=O)c3cc(OC(=O)c4ccc(C)cc4)ccc32)cc1 20.8%
CCOC(=O)c1ccc(OCC2c3cc(OC)c(OC)cc3CCN2C(=O)c2ccc(S(=O)(=O)N3CCCC3)cc2)cc1 (centres undefined) 3.61%
CCn1c(CNC(=O)c2ccc(OC)cc2)nnc1SCC(=O)Nc1ccccc1 -14.7%
COC(=O)c1ccc(NC(=O)CCc2c(C)nc3c(-c4ccccc4)c(C)nn3c2C)cc1 -0.479%
Cc1ccc(CCNC(=O)c2cn(C)c3ccc(S(=O)(=O)N(C)C4CCCCC4)cc3c2=O)cc1 0.767%
CCOC(=O)Cn1c(=O)n(CC2CCCO2)c2nc(-c3ccccc3F)nc(C(N)=O)c21 (centres undefined) 1.05%
Cc1cccc(NC(=O)c2cc(S(=O)(=O)NCc3ccc4c(c3)OCO4)ccc2F)c1C 2.2%
Cc1ccc(Cn2cc(C(=O)c3ccc(F)cc3)c(=O)c3cc4c(cc32)OCO4)cc1 3.24%
COc1ccc(CNS(=O)(=O)c2cc3c(cc2C)N(C)CCO3)cc1 -20.8%
COc1ccccc1-n1c(=O)c2c3c(sc2n(C)c1=O)CN(C(C)=O)CC3 2.35%
CCOC(=O)Cc1ccc(NC(=O)Nc2ccccc2OCc2cc(=O)n3ccccc3n2)cc1 -3.22%
O=C(NCc1ccc2c(c1)CCN2C(=O)c1ccccc1)Nc1cc(F)ccc1F -18.7%
COc1ccc(Cn2c(CNS(=O)(=O)c3ccc(C)c(C)c3)nc3cccnc32)cc1 -8.47%
CCn1nnc2cc(C(=O)Nc3cccc(Cl)c3C)ccc21 -4.73%
COc1ccc(-c2nc3scc(CCNS(=O)(=O)c4ccccc4F)n3n2)cc1 -0.172%
COc1ccc(-c2noc(-c3ccc(N4CCCC4)c([N+](=O)[O-])c3)n2)cc1 -0.155%
COc1ccc(C)cc1S(=O)(=O)NCC(c1cccs1)S(=O)(=O)c1ccc(C)cc1 (centres undefined) -6.57%
CCN1CCN(c2ncnc3c2cnn3-c2ccc(C)c(Cl)c2)CC1 0%
O=C(NC1CCCCCC1)C1CCN(C(=O)N2CCOc3ccc(Cl)cc32)CC1 -9.12%
CCCCc1nn2c(=O)cc(COC(=O)c3cccc(NC(=O)COc4ccccc4)c3)nc2s1 0%
Cc1ccc(C2=NN(CC(=O)NCCCN(CC(C)C)CC(C)C)C(=O)CC2)cc1 11.2%
Cc1cc(C)n(-c2nc3ccccc3nc2Nc2ccc(C(C)C)cc2)n1 1.04%
Cc1cc2[nH]c(=O)c(=O)[nH]c2cc1S(=O)(=O)NCc1ccc(F)cc1 0.7%
CCOCCCNC(=O)c1ccc2c(c1)NC(=O)C(CS(=O)(=O)Cc1ccc(F)cc1Cl)N2 (centres undefined) 0.67%
CCN(CCCNC(=O)CSc1cc(=O)n(C)c2ccccc12)c1ccccc1 -0.148%
O=C(Nc1ccc(Cl)cc1Cl)c1cc(S(=O)(=O)N2CCC3(CC2)OCCO3)ccc1F 8.57%
Cc1cc(C)c(NC(=O)C(C)n2c(=O)cc(C)c3c(C)nn(-c4ccccc4)c32)c(C)c1 (centres undefined) -6.02%
CC(=O)N1CCc2c(sc3c2c(=O)n(-c2ccccc2)c(=O)n3CC(=O)c2ccc(Cl)cc2)C1 1.3%
O=C(NCc1cccc(F)c1)C1CCN(c2nc3ccccc3nc2C(F)(F)F)CC1 -6.9%
COCCNC(=O)CCn1c(=O)c2cc(OC)c(OC)cc2n(CC(=O)Nc2ccc(F)c(Cl)c2)c1=O 7.77%
Cc1cc(C)c(NC(=O)Cn2c(=O)n(-c3cccc(C(F)(F)F)c3)c(=O)c3c(C)c(C)sc32)c(C)c1 -1.28%
CC(=O)N1CCOc2cc(S(=O)(=O)NCc3ccccc3Cl)c(C)cc21 4.36%
O=C(O)c1ccc(Nc2nc3ccccc3c3nncn23)cc1 8.2%
COc1ccccc1NC(=O)C(Cc1ccccc1)NS(=O)(=O)c1ccc2c(c1)CCN2C(C)=O (centres undefined) 0.514%
CCc1ccccc1Nc1nn2c(=O)c3ccc(C(=O)NCc4ccc(C)cc4)cc3nc2s1 -12.4%
CC(C)(C)C(=O)Nc1cc(-c2cccc(Br)c2)nn1-c1ccccc1 -9.73%
COCCCNC(=O)c1ccc(Cn2c(=O)c3ccccc3n(CC(N)=O)c2=O)cc1 7.06%
CCOC(=O)c1ccc(NC(=O)CSc2nc3ncc(Br)c(C)c3[nH]2)cc1 -4.28%
CCN(C(=O)c1ccc2c(c1)N(Cc1cccc(Cl)c1)C(=O)c1ccccc1S2=O)c1ccccc1 (centres undefined) -0.822%
CCC(=O)N1c2ccccc2CC1C(=O)NCCCN1CCN(c2cc(C)ccc2C)CC1 (centres undefined) 0%
COc1ccc(-c2cc3nc(N)cc(=O)n3[nH]2)cc1 1.08%
O=C(NCCCc1nc2ccccc2n1Cc1ccc(F)cc1)C1CCCCC1 -0.396%
Cc1ccc(C)c(CSc2nc3c([nH]c4ccccc43)c(=O)n2C)c1 -1.65%
CC(C)c1ccc2oc(-c3ccc(Cl)c(NC(=O)c4cccs4)c3)nc2c1 -15.2%
Cn1nc(-c2ccc(OCC(=O)Nc3cccc(C(F)(F)F)c3)cc2)c2ccccc2c1=O -25.9%
Cc1cccc(C)c1OCc1cc(=O)n2c(-c3ccccc3)csc2n1 -10.5%
COc1ccc(NC(=O)c2cc(S(=O)(=O)N3CCOCC3)cn2C)cc1Cl -1.24%
Cc1ccc(C(=O)Nc2ccc(F)cc2)cc1S(=O)(=O)N1CCCCCC1 3.99%
COc1cccc2c1cc1c(=O)n(CC(=O)N3CCN(c4ccccc4F)CC3)nc(C)n12 -8.46%
O=C1CS(=O)(=O)C2(C(=O)Nc3ccccc32)N1c1cccc(Cl)c1 (centres undefined) -4.84%
CCOc1ccc(NC(=O)CCCc2nc(-c3cccc(OC)c3)no2)cc1 -10.7%
Cc1ccc(CNC(=O)c2sc3nc(C)cc(C)c3c2-n2cccc2)cc1 0%
Cc1cccc(Cn2c(C)c(C)c3cc(C(=O)NCc4ccco4)ccc32)c1 -9.9%
CC(=O)Nc1ccccc1OCc1cc(=O)n2c3c(sc2n1)CCCC3 -0.118%
